The values that follow come from patent publication US11109592B2, “Selective weed control methods” (Corteva Agriscience LLC, priority 2013, dated 2021).

For this data set, the system named is yellow mustard (Sinapis alba). Particulars: in vivo.

Regarding `COc1c(Cl)ccc(-c2cc(N)c(Cl)c(C(=O)O)n2)c1F` [Compound I, 4-amino-3-chloro-6-(4-chloro-2-fluoro-3-methoxyphenyl)pyridine-2-carboxylic acid], the “Yield of yellow mustard, relative to untreated check treatment” value was “not impacted”.
